# In article PMC6919601, “Identification of Plasmodium dipeptidyl aminopeptidase allosteric inhibitors by high throughput screening” (PLoS ONE, 2019):
# Among all 110,000 compounds or so, about 230 (0.21%) showed an effect of 50% or more. The list shows a part of the results.
# Biological target: DPAP1 (Plasmodium falciparum, UniProt Q8IIJ9)
# Experiment: primary screen, percent inhibition; read by cleavage of a fluorogenic dipeptide substrate; higher = more effect of the substance
# Parameters: species or system P. falciparum D10 trophozoite lysates; single well
# 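Also: 30 min substrate incubation versus DMSO and 10 µM JCP410 controls.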
# Chain of DPAP1 (Q8IIJ9 whole entry, looked up): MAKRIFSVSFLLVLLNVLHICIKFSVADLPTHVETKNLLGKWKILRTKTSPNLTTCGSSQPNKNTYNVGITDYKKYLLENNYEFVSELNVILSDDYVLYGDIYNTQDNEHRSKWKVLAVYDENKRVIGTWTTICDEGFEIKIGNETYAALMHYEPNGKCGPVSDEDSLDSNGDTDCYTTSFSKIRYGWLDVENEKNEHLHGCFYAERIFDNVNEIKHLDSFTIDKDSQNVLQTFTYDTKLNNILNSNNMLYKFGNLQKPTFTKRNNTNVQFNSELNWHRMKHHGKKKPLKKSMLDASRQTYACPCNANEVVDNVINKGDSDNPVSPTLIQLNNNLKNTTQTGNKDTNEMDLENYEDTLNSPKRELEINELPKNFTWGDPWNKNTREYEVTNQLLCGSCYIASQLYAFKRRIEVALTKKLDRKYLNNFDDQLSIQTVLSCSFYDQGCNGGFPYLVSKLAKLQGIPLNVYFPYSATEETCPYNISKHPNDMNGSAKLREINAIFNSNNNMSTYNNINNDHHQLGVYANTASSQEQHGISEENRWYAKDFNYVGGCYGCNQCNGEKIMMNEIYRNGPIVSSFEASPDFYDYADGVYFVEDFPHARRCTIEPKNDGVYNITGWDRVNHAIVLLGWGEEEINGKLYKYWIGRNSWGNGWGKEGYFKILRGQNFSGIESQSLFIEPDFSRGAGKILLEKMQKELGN
row,SMILES,% Inhibition @ 10 uM
1,Cc1cc(-c2nc3cc(N)ccc3o2)ccc1Br,6.4%
2,Cc1ccc(C(=O)Nc2ccc(Cc3ccc(NC(=O)c4ccc(C)o4)cc3)cc2)o1,0.727%
3,O=C(Cn1nnc(-c2cccc(C(F)(F)F)c2)n1)NC1CCCC1,2.99%
4,Cn1nnnc1SCCNCc1ccsc1,0.00706%
5,CN(C1CCCCC1)S(=O)(=O)N1CCCC(C(=O)NCc2ccccc2)C1 (stereo not drawn),-0.232%
6,COc1ccc(N2C(=O)CC(N3CCN(C)CC3)C2=O)c(C)c1 (stereo not drawn),-7.98%
7,COc1ccc(C2(O)CSC3=C(C#N)C(c4ccc(OC(C)C)cc4)CC(=O)N32)cc1OC (stereo not drawn),9.18%
8,COC(=O)c1ccc(C(=O)Nc2cc(Cl)c(Cl)cc2Cl)cc1[N+](=O)[O-],-0.546%
9,CN(Cc1ccccc1)S(=O)(=O)c1cccc2nsnc12,-5.57%
10,COc1ccc(S(=O)(=O)NCC(=O)Nc2ccc3c(c2)OCCO3)cc1OC,4%
11,Cc1ccc(/C=C2/NC(=O)N(Cc3ccc(F)cc3)C2=O)cc1,-7.25%
12,CC(C)c1ccc(NC(=O)C2CC=CCC2C(=O)O)cc1 (stereo not drawn),6.4%
13,Cc1ccc(S(=O)(=O)N2C(=O)CCC2C(=O)NCCC23CC4CC(CC(C4)C2)C3)cc1 (stereo not drawn),4.03%
14,O=C(Cn1ccn(Cc2ccccc2)c(=O)c1=O)NCCc1ccccc1,3.17%
15,Cc1ccccc1CNC(=O)c1cc2oc3ccccc3c2n1C,1.72%
16,COc1ccccc1CC(=N)NOC(=O)COc1ccc(Br)c(C)c1,-1.4%
17,CC(C)Cn1cc(C(=O)NCc2cccnc2)c2c3ccccc3n(C)c2c1=O,-5.85%
18,CN1C(=O)C(=CNc2cccc(Br)c2)C(=O)N(C)C1=O,-4.75%
19,Fc1ccc(Nc2nc(-c3ccc(Cl)cc3)cs2)cc1,-0.771%
20,O=C(Nc1ccc(Cl)cc1F)C1CC(=O)N(c2ccc(F)cc2)C1 (stereo not drawn),-9.39%
21,CCN(CC)CCN(C)C1CC2CCC1C2 (stereo not drawn),-0.0908%
22,COc1cc(C(=O)Nc2ccc(-c3nc4cc(C)ccc4o3)cc2C)cc(OC)c1OC,-4.03%
23,CCOC(=O)c1c(C2COc3ccccc3O2)csc1NC(=O)c1ccc(Cl)cc1 (stereo not drawn),0.587%
24,Cn1c(=O)c2c(nc(SCC(=O)N3CCCCC3)n2C)n(C)c1=O,2.67%
25,CCOC(=O)C1=C(C)N(c2ccc(C)cc2)C(=O)/C1=C\c1ccc(C)cc1,-6.88%

row,SMILES,% Inhibition @ 10 uM
1,CCC(=O)N(CCc1ccccc1)C1CC(=O)N(c2ccc(Cl)cc2)C1=O (stereo not drawn),0.431%
2,CCOC(=O)c1c(C)nc(C)c(C(=O)OCC)c1-c1cccc([N+](=O)[O-])c1,3.98%
3,O=S1(=O)N(Cc2ccccc2F)CCCN1Cc1c(F)cccc1Cl,8.91%
4,Cc1cc(-c2ccc(Cl)cc2)c(C#N)c(N)n1,-2.35%
5,CC(C)CS(=O)(=O)C1=NSC2=NC(=O)/C(=C\c3ccc(O)c(Br)c3)C(=N)N21,-3.39%
6,O=C1CC(c2ccco2)CC(=O)C1=CNCC1NCCc2ccccc21 (stereo not drawn),-6.35%
7,O=C1CCCC2=C1C(c1ccc(O)cc1)C1=C(CCCC1=O)O2,-5.46%
8,CN1CCN(c2nc(-c3ccncc3)nc3ccccc23)CC1,2.36%
9,Cc1ccc(NC(=O)C(C)N2C(=O)c3ccccc3C2=O)cc1 (stereo not drawn),-1.42%
10,O=C(NCCc1ccccc1)C1CCCN(c2ncnc3c2sc2cccc(F)c23)C1 (stereo not drawn),1.03%
11,COc1ccc(C(=O)C2=C(O)C(=O)N(Cc3ccco3)C2c2cccc(O)c2)cc1 (stereo not drawn),5.15%
12,CCOC(=O)c1c(NC(=O)CSc2nnc(CNC(=O)c3ccco3)n2C)sc2c1CCC2,1.75%
13,CCOC(=O)c1c(C)[nH]c(C)c1S(=O)(=O)N1CCC(C(=O)N2CCN(C3CCCC3)CC2)CC1,1.9%
14,COc1nc(Cl)nc(Nc2ccccc2)n1,-3.66%
15,CCOC(=O)N1CCC(NC(=O)C2=CCN(S(=O)(=O)c3ccccc3)CC2)CC1,-3.35%
16,Cc1cc(O)c(C(=O)Cc2ccccc2)c(=O)n1C,4%
17,CCOCCCNC(=O)c1ccc(OC)cc1,2.27%
18,c1cc2c3c(ccc(CSCCc4ccncc4)c3c1)CC2,1.7%
19,Cn1c(=O)c2c(nc(CN3CCN(C(=O)c4ccco4)CC3)n2Cc2ccccc2)n(C)c1=O,1.02%
20,CC(C)c1ccc(C(=O)Nc2nnc(S(=O)(=O)N3CCCCC3)s2)cc1,-5.37%
21,O=C(CN1c2cccc3cccc(c23)S1(=O)=O)Nc1ccccc1F,3.42%
22,Cc1cc(C)c(C#N)c(SCC(=O)NCC(=O)O)n1,0.408%
23,C=CCn1c(SCC(=O)Nc2nnc(C)s2)nnc1-c1cccnc1,-1.18%
24,CC(C)c1ccc(CN2CCN(c3ccc([N+](=O)[O-])cc3)CC2)cc1,-0.0404%
25,Cc1nccn1C(=O)c1nn(C)c2c1COc1ccccc1-2,9.1%

row,SMILES,% Inhibition @ 10 uM
1,CC(C)CC(=O)N1CCN(Cc2ccccc2F)CC1,10.5%
2,Clc1ccccc1-c1nnc(-c2ccccc2Cl)o1,2.41%
3,CCOc1ccccc1N1CCN(C(=O)/C=C/c2ccc3c(c2)OCO3)CC1,0.0538%
4,CCC1CCC(N2CCN(c3ccc(Cl)cc3)CC2)CC1 (stereo not drawn),-0.0648%
5,CC(O)CN(Cc1cccc(Cl)c1Cl)CC(C)O (stereo not drawn),-1.5%
6,CCOC(=O)N1CCN(C(=O)CSc2c3c(nc4cc(Cl)ccc24)CCCC3)CC1,-0.0115%
7,COc1ccc(OC)c(C2C3=C(O)CC(C)(C)CC3=NC(C)=C2C(=O)OCCOc2ccccc2)c1 (stereo not drawn),15.8%
8,Cc1ccc(-n2c3c(c(=O)[nH]c2=O)C(NC(=O)c2ccccc2F)(C(F)(F)F)C(=O)N3)cc1 (stereo not drawn),1.57%
9,O=c1ncn(-c2cccc(Cl)c2)c2ccccc12,-1.51%
10,CCN(CC)S(=O)(=O)c1ccc(NC(=O)CCc2ccccc2)cc1,-1.49%
11,O=C(NCC1CCCO1)c1ccc(C(=O)NCC2CCCO2)cc1 (stereo not drawn),-12.1%
12,O=C(CCn1nc(-c2ccccc2)ccc1=O)N1CCN(Cc2ccccc2)CC1,-0.0542%
13,O=S(=O)(c1ccc(-c2ccc(S(=O)(=O)N3CCOCC3)cc2)cc1)N1CCOCC1,4.08%
14,CCOC(=O)N1CCC(/N=c2/c(N3CCC(Cc4ccccc4)CC3)c(O)c2=O)CC1,-3.21%
15,Fc1ccccc1-n1c(S)nnc1CN1CCSCC1,-1.37%
16,O=C(Nc1ccc(S(=O)(=O)NC2CCCCC2)cc1)c1ccc(Br)o1,1.89%
17,C/C(=N\c1ccc(/N=C(\C)C2=C(O)CC(C)(C)CC2=O)cc1)C1=C(O)CC(C)(C)CC1=O,3.46%
18,COc1ccccc1CNC(=O)C1CCC(C/N=c2/c(N3CCCC3)c(O)c2=O)CC1 (stereo not drawn),4.4%
19,COc1ccccc1NC(=O)c1ccc(OC)c(OC)c1,1.41%
20,OCCN1CCN(C2Cc3ccccc3Sc3cc(Cl)c(F)cc32)CC1 (stereo not drawn),-8.38%
21,NNC(=O)CCn1c2c(c3ccccc31)CCCCC2,4.22%
22,CC(NC(=O)C1CCC(CNS(=O)(=O)c2cccc3nsnc23)CC1)c1ccccc1 (stereo not drawn),-2.25%
23,Cc1ccc(SCC(=O)Nc2ccc(C)c(C)c2)cc1,-0.413%
24,O=C(O)c1ccc(Br)c(S(=O)(=O)N2CCCCCC2)c1,0.526%
25,Cc1cc(Cl)ccc1-n1c(S)nnc1CCN1CCN(C)CC1,7.15%

row,SMILES,% Inhibition @ 10 uM
1,CCOc1ccc(C(=O)Nc2sc3c(c2C#N)CCCC3)cc1,-4.4%
2,CCc1nc2ccccc2c(NC(=O)CN(C)C)c1C,0.266%
3,CC(C)C(=O)N1CCN(c2ccc(NC(=O)c3cccnc3Cl)cc2Cl)CC1,-1.61%
4,Cc1ccccc1C1CC(=O)NC2=C1C(=O)CC(c1ccccc1Cl)C2 (stereo not drawn),0.205%
5,Cc1ccc(C)c(Cn2c(C(=O)O)c(CNCCC(C)C)c3ccccc32)c1,3.54%
6,N#Cc1ccccc1OCC(=O)N1CCN(C(=O)c2ccco2)CC1,0.0198%
7,CCc1cccc(NC(=O)C2CC=CCC2C(=O)O)c1 (stereo not drawn),2.09%
8,Cc1ccnc(NC(=O)Nc2cn(C)c(=O)c3ccccc23)c1,5.15%
9,Oc1ccccc1C1=NC(c2ccc(Br)cc2)NC(c2ccccn2)C1 (stereo not drawn),1.02%
10,CC(C)OCCCNC(=O)CCc1nc(-c2ccccc2F)no1,-2.19%
11,CCc1ccc(CN2CCN(C(=O)c3ccc(OC)c(OC)c3)CC2)cc1,-1.42%
12,CCOC(=O)c1sc(NC(=O)CSc2nc(N)cc(O)n2)nc1C,6.38%
13,CCCn1c2ccccc2c2cnn(CC(=O)NCc3ccc(C)cc3)c(=O)c21,-1.96%
14,CCOC(=O)c1c(C)n(C)c2ccc(OCc3ccccc3)cc12,0.968%
15,COC(=O)[C@]1(C#N)C(C)(C)[C@@]1(C#N)C(=O)OC,-2.66%
16,O=c1c2c3n(c4ccccc4c(=O)n3c3ccccc13)CC2,-5.46%
17,Cc1nn(CC(=O)NCc2ccccn2)c(=O)c2cc3sccc3n12,-1.58%
18,CCOc1ccccc1NC(=O)CC1Sc2ccccc2NC1=O (stereo not drawn),-0.424%
19,N#Cc1c(-c2ccccc2Cl)c(C#N)c2nc3ccccc3n2c1N,21.6%
20,COc1ccc(OC)c(C2Nc3cccc4cccc(c34)N2)c1,0.751%
21,CC1CC(=O)C2=C(C1)OC(N)=C(C#N)C2c1ccc(-c2ccccc2)cc1 (stereo not drawn),22.4%
22,COc1ccc(/C=C2\SC(=O)N(CN3CCCC3)C2=O)cc1,-3.26%
23,CCOC(=O)c1cc2c(=O)n3ccccc3nc2n(C(C)C)/c1=N\C(=O)C(CC)c1ccccc1 (stereo not drawn),4.37%
24,CCOC(=O)c1c(NC(=O)COc2cccc(Cl)c2)sc2c1CCC(C)C2 (stereo not drawn),1.58%
